The record followed here is article PMC5986797, “Laminin heparin-binding peptides bind to several growth factors and enhance diabetic wound healing” (Nature Communications, 2018).

Sequences of proteins named here, by UniProt entry; tags and fusion partners are left off. A change or cut given only in a name is not applied to a line headed by its entry. Residues count along the entry.
UniProt P18075, residues 293-431: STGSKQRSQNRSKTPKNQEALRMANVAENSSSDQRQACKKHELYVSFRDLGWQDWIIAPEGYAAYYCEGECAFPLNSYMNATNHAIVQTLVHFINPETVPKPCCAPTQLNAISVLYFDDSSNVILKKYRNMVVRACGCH
UniProt P01138, residues 122-241: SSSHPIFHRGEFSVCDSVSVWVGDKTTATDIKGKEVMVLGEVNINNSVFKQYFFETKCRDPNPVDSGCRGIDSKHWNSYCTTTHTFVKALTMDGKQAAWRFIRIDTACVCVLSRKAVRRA
UniProt P09038, residues 143-288: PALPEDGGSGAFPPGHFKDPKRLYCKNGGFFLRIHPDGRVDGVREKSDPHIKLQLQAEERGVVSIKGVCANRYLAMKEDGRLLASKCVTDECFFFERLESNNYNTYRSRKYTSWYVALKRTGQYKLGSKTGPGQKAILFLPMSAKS
UniProt Q16363: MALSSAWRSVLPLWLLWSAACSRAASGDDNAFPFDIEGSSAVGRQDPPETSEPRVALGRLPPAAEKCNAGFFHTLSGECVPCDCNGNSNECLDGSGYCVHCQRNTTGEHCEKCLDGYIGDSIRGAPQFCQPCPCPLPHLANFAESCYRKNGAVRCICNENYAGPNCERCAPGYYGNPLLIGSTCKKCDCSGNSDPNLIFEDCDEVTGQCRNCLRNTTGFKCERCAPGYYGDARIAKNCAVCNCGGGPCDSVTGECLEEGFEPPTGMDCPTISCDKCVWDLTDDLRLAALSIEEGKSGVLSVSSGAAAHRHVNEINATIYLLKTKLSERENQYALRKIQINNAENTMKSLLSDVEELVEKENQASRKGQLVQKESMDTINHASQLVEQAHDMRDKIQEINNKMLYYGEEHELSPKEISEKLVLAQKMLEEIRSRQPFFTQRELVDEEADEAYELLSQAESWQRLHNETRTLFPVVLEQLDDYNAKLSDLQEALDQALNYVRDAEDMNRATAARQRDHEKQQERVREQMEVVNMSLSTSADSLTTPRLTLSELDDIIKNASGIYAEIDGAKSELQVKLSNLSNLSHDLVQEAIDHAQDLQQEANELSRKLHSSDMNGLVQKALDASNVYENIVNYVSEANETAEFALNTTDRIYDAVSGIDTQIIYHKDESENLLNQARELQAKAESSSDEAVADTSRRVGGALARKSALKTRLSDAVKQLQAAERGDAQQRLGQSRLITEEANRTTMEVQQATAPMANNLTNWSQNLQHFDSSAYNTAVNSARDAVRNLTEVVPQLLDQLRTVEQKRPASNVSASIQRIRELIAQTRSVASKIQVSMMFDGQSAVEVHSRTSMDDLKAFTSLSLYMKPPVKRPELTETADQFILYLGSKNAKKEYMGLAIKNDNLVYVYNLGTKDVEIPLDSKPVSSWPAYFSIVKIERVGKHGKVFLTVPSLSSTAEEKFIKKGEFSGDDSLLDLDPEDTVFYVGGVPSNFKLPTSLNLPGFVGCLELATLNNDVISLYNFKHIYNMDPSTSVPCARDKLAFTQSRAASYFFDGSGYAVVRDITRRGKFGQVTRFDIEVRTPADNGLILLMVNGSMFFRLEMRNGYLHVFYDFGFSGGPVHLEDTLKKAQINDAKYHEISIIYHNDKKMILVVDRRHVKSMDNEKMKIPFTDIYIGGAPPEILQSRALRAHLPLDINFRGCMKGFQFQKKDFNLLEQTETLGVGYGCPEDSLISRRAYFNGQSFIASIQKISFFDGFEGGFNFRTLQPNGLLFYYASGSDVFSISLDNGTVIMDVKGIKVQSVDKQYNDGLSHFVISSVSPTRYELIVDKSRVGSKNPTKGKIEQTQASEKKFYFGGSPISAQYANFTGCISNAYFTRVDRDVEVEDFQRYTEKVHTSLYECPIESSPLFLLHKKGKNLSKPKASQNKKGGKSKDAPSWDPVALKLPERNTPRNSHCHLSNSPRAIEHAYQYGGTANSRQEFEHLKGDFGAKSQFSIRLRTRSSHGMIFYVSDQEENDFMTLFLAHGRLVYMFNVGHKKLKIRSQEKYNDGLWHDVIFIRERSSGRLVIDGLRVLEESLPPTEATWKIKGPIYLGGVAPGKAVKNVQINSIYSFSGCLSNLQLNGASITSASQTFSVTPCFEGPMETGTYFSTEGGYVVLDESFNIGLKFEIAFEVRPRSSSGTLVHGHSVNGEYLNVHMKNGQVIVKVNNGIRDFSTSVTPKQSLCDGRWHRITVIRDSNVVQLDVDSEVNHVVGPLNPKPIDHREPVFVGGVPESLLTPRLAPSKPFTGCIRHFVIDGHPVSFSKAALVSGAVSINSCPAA

What all share (test): ELISA; plates coated with 50 nM GF or chemokine in PBS; 10 nM laminin isoform in PBS added; bound laminin detected with anti-LAMC1 or anti-LAMA3 polyclonal antibody; A450 signals greater than 0.1 taken as binding; BSA-coated wells as control; both purified
For orientation: An ELISA detects its analyte on a solid surface through an enzyme-linked reagent.

For one assay, the target named is T1, BMP-4 (UniProt P12644).
T1 sequence: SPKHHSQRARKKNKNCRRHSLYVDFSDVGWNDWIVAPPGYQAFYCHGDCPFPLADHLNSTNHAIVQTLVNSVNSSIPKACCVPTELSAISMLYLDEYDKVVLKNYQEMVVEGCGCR

Another assay deals with BMP-7 (UniProt P18075).
In assay [1] the target is β-nerve growth factor (βNGF) (UniProt P01138).
The next assay concerns the target T2, FGF-10 (UniProt O15520).
T2 sequence: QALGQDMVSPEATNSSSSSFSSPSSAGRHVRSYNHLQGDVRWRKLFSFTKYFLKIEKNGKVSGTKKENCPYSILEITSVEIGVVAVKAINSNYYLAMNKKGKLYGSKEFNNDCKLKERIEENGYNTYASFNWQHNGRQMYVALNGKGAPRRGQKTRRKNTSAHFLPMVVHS

In the next assay the target is T3, FGF-7 (UniProt P21781).
T3 sequence: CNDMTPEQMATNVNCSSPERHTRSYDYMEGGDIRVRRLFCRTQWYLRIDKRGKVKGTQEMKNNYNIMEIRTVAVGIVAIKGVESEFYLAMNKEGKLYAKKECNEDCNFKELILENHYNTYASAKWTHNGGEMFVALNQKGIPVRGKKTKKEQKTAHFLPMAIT

The next assay addresses FGF-2 (human) (UniProt P09038).

No constants are given. Whether binding was seen depends on the method and setting. Some entries that bind do so weakly or less than the wild type.

With “recombinant human laminin-411 (from UniProt Q16363 25-1823; P07942 22-1786; P11047 34-1609) (complex)”, the binding entry is “no binding (tested: 10 nM laminin)” with BMP-4; “no binding (tested: 10 nM laminin)” with BMP-7; “binds weakly” in assay [1]; “binds” with FGF-10; “binds” in the assay with FGF-7; “binds” with FGF-2 (human).
For the substance “recombinant human laminin-421 (from UniProt Q16363 25-1823; P55268 33-1798; P11047 34-1609) (complex)”, the binding entry is listed as “no binding (tested: 10 nM laminin)” in the assay with BMP-4; “no binding (tested: 10 nM laminin)” in the assay with BMP-7; “binds weakly” in assay [1]; “binds” with FGF-10; “binds” with FGF-7; “binds” in the assay with FGF-2 (human).
